Test system: inverse tolerance induced by chronic treatment with morphine
Test: Inverse tolerance (increased sensitivity) induced by chronic treatment with morphine, locomotor activity
Conditions: morphine 10 mg/kg s.c. given acutely only on the 7th day

CN1CC[C@]23c4c5ccc(O)c4O[C@H]2[C@@H](O)C=C[C@H]3[C@H]1C5 [Morphine, morphine]
% increase vs. physiological saline: 80.3% | Total distance (cm): 5050 cm

Source: patent US20100197962A1 (priority 2005, published 2010)
